Measurements as given in PubChem BioAssay AID624417 (National Center for Advancing Translational Sciences (NCATS), 2012).
In all, about 410,000 compounds went through this assay and about 6,400 (1.6%) were called active. Inconclusive means that the source gave no clear call. Such entries were picked first, then a sample of the others. The call rests on the fitted dose curve; in most records, active means well fitted inhibition curve with a large enough effect; inconclusive means small, poorly fitted or top-dose-only effect; inactive means no such curve, though single readings can be large or run the other way. No potency is given beside an inconclusive call; the fits are too rough.
Further: nearly all actives have a fitted effect of over 55% in size.
On the % scale 0 is the no-effect control and ±100 the full control effect; potency means the concentration at half of the fitted maximal effect; tags describe the fitted curve by direction and shape.

Each compound was assayed against Glucagon-like peptide 1 receptor (Homo sapiens) (UniProt P43220) (assay: qHTS of GLP-1 Receptor Inverse Agonists (Inhibition Mode)). Details: HEK293 GLP-1R CRE-luciferase, luminescence, 24 h, GLP-1R form is constitutively active; activity change, negative = inhibition: at 38.3 µM (top of the series) unless noted.
Sequence of UniProt P43220 (P43220 whole entry, looked up): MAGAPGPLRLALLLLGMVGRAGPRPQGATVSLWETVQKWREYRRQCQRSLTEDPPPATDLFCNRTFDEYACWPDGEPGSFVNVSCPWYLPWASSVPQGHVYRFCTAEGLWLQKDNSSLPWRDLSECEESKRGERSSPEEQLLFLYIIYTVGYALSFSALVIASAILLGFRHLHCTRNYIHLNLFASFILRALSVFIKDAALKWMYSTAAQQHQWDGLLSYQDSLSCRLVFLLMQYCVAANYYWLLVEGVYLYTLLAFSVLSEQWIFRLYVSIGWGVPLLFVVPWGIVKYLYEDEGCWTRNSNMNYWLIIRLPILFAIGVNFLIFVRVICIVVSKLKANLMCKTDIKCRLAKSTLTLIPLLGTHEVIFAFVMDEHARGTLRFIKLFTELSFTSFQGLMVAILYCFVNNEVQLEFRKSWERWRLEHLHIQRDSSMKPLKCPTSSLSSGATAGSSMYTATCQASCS
Method in brief: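 HEK293 cells stably co-expressing constitutively active GLP-1R and a cAMP-responsive luciferase reporter were seeded in DMEM with 10% Nu serum, given compounds after 12 h, and incubated 24 h at 37 deg C. Luminescence was then read.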
In the case of COc1ccc(-c2cc(C(=O)N3CCCCCC3)c3ccccc3n2)c(OC)c1, the Potency is reported as inconclusive [inhibitor, single point]. For CCN(CC)S(=O)(=O)c1ccc(C(=O)NC2CC(=O)N(c3ccc(OC)c(OC)c3)C2)cc1 (configuration not stated), the “activity change, negative = inhibition” value was inactive: -3.66%. For CC(C)c1ccc(NC(=O)C(c2ccccc2)N2CCC3(CC2)OCCO3)cc1 (configuration not stated), the Potency was inconclusive [inhibitor, full curve, poor fit]. With CC(C)CCNC(=O)c1ccc(CSCc2cccc(F)c2)o1 the Potency was inconclusive [inhibitor, single point]. In the case of COc1cc(/C=N/NC(=O)Cn2cnc3ccccc3c2=O)ccc1O, the “activity change, negative = inhibition” value is reported as inactive: 39.9%. In the case of Oc1ccccc1C=NNC(=S)Nc1ccc(F)cc1, the Potency is reported as inconclusive [inhibitor, full curve, poor fit]. With Cc1cccc(C(=O)N2CCc3cc(-c4csc(NC(=O)CN5CCCC5)n4)ccc32)c1 the Potency was inconclusive [inhibitor, single point]. In the case of Cc1c(-c2ccccc2)sc(Br)c1C(=O)N1CCOCC1, the Potency is reported as inconclusive [inhibitor, single point]. With Cc1cccc(N(CC(O)CN(C)C)S(=O)(=O)c2ccccc2)c1 (configuration not stated) the Potency was inconclusive [inhibitor, partial curve]. In the case of COc1ccc(-c2cccc([C@H]3[C@@H]4C=CC[C@@H](C)[C@@H]4C(=O)N3Cc3ccccc3)c2)cc1, the Potency is reported as inconclusive [inhibitor, partial curve, poor fit]. In the case of COc1ccccc1CCC(=O)Nc1ccc2c(c1)c(=O)n(C)n2Cc1ccc(F)cc1, the Potency is reported as inconclusive [inhibitor, partial curve, poor fit]. O=C(Cn1c(-c2cccs2)cc2cc(F)ccc21)N1CCN(c2ccccc2)CC1 was tested, and the Potency was inconclusive [inhibitor, partial curve]. COc1ccc(CNc2oc(/C=C/c3cc(OC)c(OC)c(OC)c3)nc2C#N)cc1 was tested, and the “activity change, negative = inhibition” value was inactive: 4.94%. CC(C)NC(=S)N/N=C/c1c[nH]c2ccccc12 was tested, and the Potency was inconclusive [inhibitor, single point]. For COc1ccc(OC)c(C2C3=C(COC3=O)Nc3cc4c(cc32)OCO4)c1 (configuration not stated), the Potency was inconclusive [inhibitor, full curve, poor fit]. C[C@@H]1CN([C@@H](C)CO)C(=O)c2cc(NC(=O)CCC(F)(F)F)ccc2O[C@H]1CN(C)Cc1ccc(Cl)c(Cl)c1 was tested, and the Potency was inconclusive [inhibitor, partial curve, poor fit]. CC(C)COc1ccc(-c2nn(-c3ccccc3)cc2CO)cc1 was tested, and the Potency was inconclusive [inhibitor, partial curve, poor fit].
